In PubChem BioAssay AID924 (National Center for Advancing Translational Sciences (NCATS), 2007):
Where “and” joins values, the source holds several entries; their conditions need not be identical. Equal values may be shown once. Out of some 130,000 compounds screened, about 1,200 (0.92%) were called active. The inconclusive results got no clear call from the source; some entries with a clear call stand among them for comparison. The call rests on the fitted dose curve; in most records, active means well fitted cell-killing curve with a large enough effect; inconclusive means small, poorly fitted or top-dose-only effect; inactive means no such curve, though single readings can be large or run the other way. A potency beside an inconclusive call is a rough fit, not a confirmed value.

Test: qHTS Screen for Compounds that Selectively Target Cancer Cells with p53 Mutations: Cytotoxicity of p53ts Cells at the Permissive Temperature; further: nearly all actives have a fitted effect of over 55% in size;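 on activity change, negative = cytotoxicity: 0% = DMSO and -100% = full killing by reference compound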
Conditions: H1299-p53A138V at 32C, ATP luminescence viability, 24 h; activity change, negative = cytotoxicity: at 46.1 µM (top of the series)
Method in brief: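 Cells: H1299 p53ts (A138V), 600/well, pre-incubated 16–30 h at 37C. Cpd up to 46 uM, 24 h, 32C. Readout: ATPlite luminescence, 20 min RT. Normalization: DMSO vs tamoxifen 100 uM. AC50 by Hill equation.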
Potency means the concentration at half of the fitted maximal effect; tags describe the fitted curve by direction and shape.

| Structure (SMILES) | activity change, negative = cytotoxicity | Potency |
| --- | --- | --- |
| CC(C)=CCC/C(C)=C/CO/N=C1/C[C@@H](O)[C@@H](O)[C@@H]2[C@@H]3C(=O)N(C4CCCCC4)C(=O)[C@H]3CC[C@@H]12 | inactive: 7.43% [at 9.22 µM] |  |
| CCc1cccc(C)c1NC(=O)Cn1ccn(-c2cccc(OC)c2)c(=O)c1=O |  | inactive |
| COc1ccc(-c2nc3cnc(N4CCOCC4)nc3n(C)c2=O)cc1 |  | inactive |
| CC(C)(C)c1ccc(-c2conc2N)cc1 |  | inconclusive: 10 µM [cytotoxic, partial curve] |
| Cc1cc2ccccc2n1-c1ccc(C(=O)N2CCC(C(=O)NCc3ccc(Cl)cc3)CC2)s1 |  | inactive |
| COc1cc2cc(CNc3ccc(C)cc3)c(=O)n(CC(=O)Nc3ccc(F)cc3F)c2cc1OC |  | inactive |
| OC[C@H]1O[C@@H](n2cnc3c(NCc4ccco4)ncnc32)[C@H](O)[C@@H]1O |  | active: 15.8 µM |
| O=C(O)[C@H]1CCCC[C@@H]1c1c2ccc(=O)c(O)c-2oc2c(O)c(O)ccc12 | inactive: -5.46% [at 9.22 µM] |  |
| Cc1c(NC(=O)c2ccccc2)c(=O)n(-c2ccccc2)n1C |  | inactive |
| CN(Cc1ccccc1)C(=O)Nc1ccc2c(c1)N(C)C(=O)c1ccccc1S2 |  | inconclusive: 25.1 µM [cytotoxic, single point] |
| O=C(NCc1ccccc1Cl)c1ccc(CSCc2ccccc2Cl)o1 |  | inconclusive: 14.1 µM [cytotoxic, partial curve, poor fit] |
| CC(C)Oc1ccc(C(=O)N(Cc2ccco2)c2ccccn2)cc1 |  | inconclusive: 15.8 µM [cytotoxic, single point] |
| O=C1CC(c2ccc3c(c2)OCO3)Sc2nc3ccccc3n21 (stereo unspecified) |  | active: 12.6 µM |
| O=C(COc1ccccc1)Nc1ccc2c(c1)nc1n2CCOC1 |  | inconclusive: 10 µM [cytotoxic, partial curve] |
| Nc1ccc2nn(-c3cccc4ccccc34)nc2c1 |  | inconclusive: 12.6 µM [cytotoxic, partial curve] |
| COC(=O)C1C(=O)c2c([nH]c(C(=O)OCCSC)c2C)CC1C (stereo unspecified) |  | inconclusive: 12.6 µM [cytotoxic, partial curve] |
| COc1ccc(-c2cc(C(=O)NCCc3ccc(OC)c(OC)c3)c3ccccc3n2)cc1 |  | inconclusive: 12.6 µM [cytotoxic, partial curve] |
| COc1ccc(NC(=O)C(C)Sc2cc(-c3ccccc3)nc(C)n2)cc1Cl (stereo unspecified) |  | inconclusive: 3.16 µM [cytotoxic, single point] |
| Cn1cc(C(=O)NCCc2ccccc2)c(=O)c2cc(S(=O)(=O)N3CCCCCC3)ccc21 |  | inactive |
| CCN1CCN(Cc2ccc(OCc3ccccc3)cc2)CC1 |  | inconclusive: 25.1 µM [cytotoxic, single point] |
| NC(=O)c1c(NC(=O)c2cccs2)sc2c1CCCCCC2 |  | inconclusive: 15.8 µM [cytotoxic, partial curve] |
| CCc1cccc(NC(=O)c2oc3ccc4c(c3c2C)C(=O)CC(C)(C)O4)c1 |  | inconclusive: 3.98 µM [cytotoxic, full curve] |
| CCc1c(C)c2ccc(O)c(CN3CCN(c4ccc(OC)cc4)CC3)c2oc1=O |  | inconclusive: 7.94 µM [cytotoxic, partial curve] |
| CCc1ccc(-n2c(SCc3ccccc3C)nc3[nH]ncc3c2=O)cc1 |  | inconclusive: 31.6 µM [cytotoxic, single point] |

| Structure (SMILES) | activity change, negative = cytotoxicity | Potency |
| --- | --- | --- |
| COC(=O)c1ccc(Cn2c(SCc3ccccc3)nc3ccncc32)cc1 |  | inconclusive: 20 µM [cytotoxic, single point] |
| CCOc1ccc(-c2nn[nH]n2)cc1 |  | inconclusive: 10 µM [cytotoxic, single point] |
| CCOC(=O)N1CCC(=C2c3ccc(Cl)cc3CCc3cccnc32)CC1 |  | inconclusive: 31.6 µM [cytotoxic, single point] |
| Cc1ccccc1C(=O)OCc1cc(=O)n2c(C)csc2n1 |  | inactive |
| Nc1ncnc2c1ncn2CCOc1ccccc1 |  | inactive |
| O=C(COc1ccccc1[N+](=O)[O-])N1CCC(c2nc3ccccc3o2)CC1 |  | inactive |
| CC(C)S(=O)(=O)c1oc(-c2cccs2)nc1S(=O)(=O)c1ccc(F)cc1 |  | inconclusive: 25.1 µM [cytotoxic, single point] |
| COc1cc2c(C#N)c(N3CCOCC3)nc(N)c2c(N)n1 |  | inactive |
| COc1ccc(-c2coc3cc(O)ccc3c2=O)cc1 |  | inconclusive: 1.58 µM [cytotoxic, full curve] and inconclusive: 15.8 µM [cytotoxic, partial curve, poor fit] |
| Oc1c(Br)cc(Br)c2cccnc12 |  | inconclusive: 12.6 µM [cytotoxic, partial curve] |
| CS(=O)(=O)Nc1cccc(-c2nc(Nc3ccc(F)cc3)c3ccccc3n2)c1 |  | inconclusive: 31.6 µM [cytotoxic, single point] |
| Cc1cccc(Cn2c(N(C)Cc3ccccc3)nc3c2c(=O)[nH]c(=O)n3C)c1 |  | active: 6.31 µM |
| CCCCN(C)CC(O)Cn1cc(/C=C/C(=O)c2ccc(C)cc2)c2ccccc21 (stereo unspecified) |  | inconclusive: 25.1 µM [cytotoxic, single point] |
| CCc1ccc2oc(-c3ccc(N)cc3)nc2c1 |  | active: 7.94 µM |
| NC(=O)c1ccccc1N/C=C/C(=O)c1cccs1 |  | active: 11.2 µM |
| C=Cc1cccc(C)c1 |  | inconclusive: 0.005 µM [cytotoxic, full curve, poor fit] |
| COc1ccc(C(=O)Nc2ccc(Cl)cn2)cc1Cl |  | inconclusive: 12.6 µM [cytotoxic, single point] |
| COc1ccc(-c2nc3ccccc3s2)cc1NC(=O)COc1cccc(C)c1 |  | inactive |
| CCOc1ccc(NC(=O)C(=O)NCCc2ccccc2)cc1 |  | inactive |
| CC[C@H](C)[C@H](NC(=O)OCC1c2ccccc2-c2ccccc21)C(=O)O |  | inconclusive: 31.6 µM [cytotoxic, single point] |
| O=c1oc(-c2cccs2)nc2sc3c(c12)CCCCC3 |  | active: 12.6 µM |
| Cc1ccc(OCC(=O)Nc2ccc3nc(SCC(N)=O)sc3c2)cc1 |  | inactive |
| CC(=O)c1ccc(N2CCN(C(=O)c3cc4ccc5cccnc5c4[nH]3)CC2)cc1 |  | inconclusive: 20 µM [cytotoxic, single point] |
| COc1ccc(CCN2CC(C(=O)NCCc3ccccc3)CC2=O)cc1OC (stereo unspecified) |  | inconclusive: 0.355 µM [cytotoxic, full curve, poor fit] |

| Structure (SMILES) | activity change, negative = cytotoxicity | Potency |
| --- | --- | --- |
| CCCCS(=O)(=O)c1oc(-c2ccc(F)cc2)nc1S(=O)(=O)c1ccccc1 |  | active: 10 µM |
| COc1ccc(Cn2ccc3nc(C)c(C(=O)N4CCN(c5ccccc5F)CC4)cc3c2=O)cc1 |  | inactive |
| C=CCn1c(C)cc(C(=O)CN2C(=O)c3ccccc3C2=O)c1C |  | inconclusive: 12.6 µM [cytotoxic, partial curve] |
| Cc1ccc2oc(-c3cccc(NC(=O)C4CCCO4)c3)nc2c1 (stereo unspecified) |  | inconclusive: 12.6 µM [cytotoxic, single point] |
| Cc1ccc(CCNC(=O)c2ccc(Cn3c(=O)c4cccn4c4cccnc43)cc2)cc1 |  | inconclusive: 31.6 µM [cytotoxic, single point] |
| COc1ccc(O[C@H]2C=C[C@@H](c3ccccc3)O[C@H]2COC(=O)CC/C(C)=N\O[C@@H](C)c2cc(-c3c(C)cc(C)cc3C)no2)cc1 | inactive: 6.49% [at 9.22 µM] |  |
| Cc1nc2ncnn2c(N2CCN(C(c3ccccc3)c3ccccc3)CC2)c1C |  | inconclusive: 31.6 µM [cytotoxic, single point] |
| COc1ccc2cc(C(=O)N3CCCCCC3)sc(=O)c2c1OC |  | inactive |
| CC(=O)c1ccc(NC(=O)/C=C/c2ccc(C)o2)cc1 |  | active: 7.94 µM |
| CCN(CC)CCNC(=O)c1ccc2c(=O)n3nc(Nc4cccc(Cl)c4C)sc3nc2c1 |  | inconclusive: 10 µM [cytotoxic, partial curve] |
| COC(=O)c1ccc(NC(=O)c2ccco2)cc1 |  | inconclusive: 10 µM [cytotoxic, partial curve] |
| COc1cccc(OCc2nc3ccccc3n2C)c1 |  | inconclusive: 10 µM [cytotoxic, partial curve] |
| O=C(Cn1c(=O)n(Cc2ccc(F)cc2)c(=O)c2sc3ccccc3c21)NCc1ccccc1 |  | inactive |
| CCCC(c1nnnn1Cc1cccs1)N1CCN(C2CCCC2)CC1 (stereo unspecified) |  | inactive |
| c1ccc(-c2cn3c(n2)SCC3)cc1 |  | inconclusive: 11.2 µM [cytotoxic, single point] |
| CCCOc1ccccc1C(=O)Nc1ccc(-c2nc3ccc(C)cc3s2)cc1 |  | inconclusive: 10 µM [cytotoxic, partial curve] |
| CCOC(=O)c1sc(NC(=O)c2ccc(CC)s2)nc1C |  | inactive |
| CCC1CCCCN1S(=O)(=O)c1ccc(C(=O)Nc2nnc(-c3cccs3)o2)cc1 (stereo unspecified) |  | inactive |
| O=S(=O)(Nc1cccc(-c2ccc(N3CCOCC3)nn2)c1)c1ccc(F)c(C(F)(F)F)c1 |  | inconclusive: 15.8 µM [cytotoxic, partial curve] |
| CC(C)(C)c1ccc(C(=O)Nc2nnc3n2CCS3)cc1 |  | inconclusive: 11.2 µM [cytotoxic, partial curve] |
| COC(=O)c1cc2sccc2n1Cc1nc(-c2ccc(C)cc2)oc1C |  | inconclusive: 3.98 µM [cytotoxic, full curve] |
| c1ccc(-c2cccc(-c3ccccn3)n2)nc1 |  | inconclusive: 20 µM [cytotoxic, partial curve] |
| COC(=O)[C@@]1(C)CCC[C@@]2(C)c3ccc(O)c(C(C)C)c3CCC21 (stereo partly specified) |  | inconclusive: 25.1 µM [cytotoxic, single point] |
